SMILES strings stand for the structures.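 Cultured in 96-well plates, cells were exposed to test compound for 48 hours across five concentrations. The concentration for 50% growth inhibition is given as GI50.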 Activity calls are given as the source filed them. Cut-off read from the data, not from the text of the source: active = GI50 up to about 1.1 µM and inactive = higher.

The test system of this assay is NCI-H322M. As to the kind of experiment: NCI tumour cell line growth inhibition, 48 h.
With `NS(=O)(=O)c1ccc(NC(=O)Nc2ccccc2F)cc1`, the GI50 was inactive: > 100 µM.
In the case of `COC(=O)c1cc(-c2ccc3ccccc3c2)nc(O)c1C#N`, the GI50 is inactive: > 100 µM.
For `Cc1cc(C)c2c(SCc3ccc(Cl)cc3Cl)nc(N)nc2n1`, the GI50 was inactive: 65.2 µM.
As for `COc1ccc(-c2nc(N)c(C#N)c3c2CCSc2ccc(C)cc2-3)cc1OC`, the GI50 was inactive: 44.4 µM.
In the case of `COc1ccc(/C=C/C(=O)c2sc(-c3cccnc3)nc2C)cc1`, the GI50 is inactive: 78.3 µM.
Regarding `O=C1C=C(c2ccccc2)NC1(c1ccccc1)c1cc(-c2ccccc2)[nH]c1-c1ccccc1` (configuration not stated), the GI50 was inactive: > 100 µM.
As for `O=c1cc(-c2ccccc2)oc2cc(OCCSCCCCCCCCCCSCCOc3ccc4c(=O)cc(-c5ccccc5)oc4c3)ccc12`, the GI50 was inactive: > 100 µM.
Turning to `Nc1c(Br)cc(-c2nc3ccccc3s2)cc1Br`, the GI50 is inactive: > 100 µM.
The value for `O=C(Cc1ccccc1)N/N=C(/c1nc2ccc([N+](=O)[O-])cc2nc1O)C(O)c1ccco1` (configuration not stated) was inactive: > 100 µM.
For the compound `[N-]=[N+]=Nc1ncnc2c1sc(=S)n2-c1ccccc1`, the GI50 was inactive: > 100 µM.
Take `C=CCN(N=O)C(=O)N(CCCC(NC(C)=O)C(=O)NCc1ccccc1)Cc1ccccc1` (configuration not stated): the GI50 is inactive: 31.9 µM.
Consider `S=c1[nH]c2c(Cl)c(Cl)c(Cl)c(Cl)c2[nH]1`, for which the GI50 is inactive: 25.7 µM.
For the compound `NC(=S)N1N=C(c2ccccc2O)CC1c1ccccc1` (configuration not stated), the GI50 was inactive: 19 µM.
For the compound `O=C(O)c1cc2c(cc1CC(Cc1ccc3c(c1)CCC3)C(=O)O)CCC2` (configuration not stated), the GI50 was inactive: > 100 µM.
For the compound `C/C(=N\O)C1CC2C=C(C#N)C1N(Cc1ccccc1)C2` (configuration not stated), the GI50 is inactive: 98.2 µM.
As to `COc1ccc([C@H]2c3cc4c(cc3OC(O)(CO)[C@H]2C(=O)O)OCO4)c(OC)c1.COc1ccc([C@H]2c3cc4c(cc3OC3(O)COC(=O)[C@@H]23)OCO4)c(OC)c1` (some centres not stated), the GI50 was inactive: > 100 µM.
The figure for `COC(=O)C(=O)CC(=O)CCn1ncc(Cl)c(Cl)c1=O` is inactive: 16.3 µM.
`O=C1Nc2cccc(Cl)c2/C1=C\c1c(Cl)nc2n1CCS2`: the GI50 was inactive: > 100 µM.
With `CCC1CC(C)C(O)/C=C/C=C/CC(C)OC(=O)CC(O)C(OC)C1OC1OC(C)CC(O)(C(C)=O)C1O` (configuration not stated), the GI50 is inactive: > 100 µM.
As to `O=c1c(O)c(-c2ccccc2)oc2c(CP(=O)(O)O)cccc12`, the GI50 is inactive: > 100 µM.
In the case of `CC(C)N(C(=O)C12C3C4C1C1C2C3C41C#N)C(C)C` (configuration not stated), the GI50 was inactive: > 100 µM.
As to `O=S(=O)(CCC[C@H]1[C@@H](CCOCc2ccccc2)C2CCCN1O2)c1ccccc1` (some centres not stated), the GI50 was inactive: > 100 µM.
Consider `CCOC(=O)CSc1nnc(C(Sc2nc(-c3ccccc3)c(-c3ccccc3)[nH]2)C(C)C)n1-c1ccccc1` (configuration not stated), for which the GI50 was inactive: 15.3 µM.
The figure for `O=c1cc(-c2ccccc2)oc2ccc(Oc3nnnn3-c3ccccc3)cc12` is inactive: > 100 µM; for `CC(=O)OCC1OC(n2c(-c3ccccc3)c(/N=N/c3ccccc3)c(C)c(C#N)c2=S)C(OC(C)=O)C(OC(C)=O)C1OC(C)=O` (configuration not stated) it is inactive: > 100 µM; for `CC(C)CN1CC(C)C(=O)NC1=O` (configuration not stated) it is inactive: > 100 µM.
With `C=C1C(=O)OC2/C=C(/C)C3(O)OC(C)(CC(OC(=O)C(C)C)C12)CC3OC(C)=O` (configuration not stated), the GI50 is inactive: 38.9 µM.
Consider `Cc1nc2c(n1CCN(C)C)C(=O)c1ccccc1C2=O`, for which the GI50 was inactive: 23.2 µM.
Take `Cc1cccc2c(=O)c3cccc(CC(=O)O)c3oc12`: the GI50 was inactive: > 100 µM.
The figure for `CCCCCCCCCCCCCCCC(=O)N(CCCCCCCCCCC(=O)O)CC(O)C(O)C(OC1OC(CO)C(O)C(O)C1O)C(O)CO` (configuration not stated) is inactive: 38.5 µM.
Consider `COc1ccc(CCc2cc(OC)c(OC)c(OC)c2)cc1`, for which the GI50 is active: 0.14 µM.
Consider `CC(=O)c1cc2c(s1)C(=O)c1ccccc1C2=O`, for which the GI50 was inactive: 4.93 µM.

For the origin of these results see ChEMBL document CHEMBL1201862, “PubChem BioAssay data set” (2004).
